# Measurements from ChEMBL document CHEMBL4888484, “Replenishing the malaria drug discovery pipeline: Screening and hit evaluation of the MMV Hit Generation Library 1 (HGL1) against asexual blood stage Plasmodium falciparum ,using a nano luciferase reporter read-out” (2022).
# The whole screen tested about 150,000 compounds, of which about 540 (0.36%) showed an effect of 50% or more. This is one part of the list.
# System: Plasmodium falciparum
# Assay: Primary screen in NF54 nanoGlo assay, in single point, at 2uM, 72h; a lower Z score goes with more inhibition
# Format: functional, Erythrocyte
# Conditions: timepoint 72 hour
SMILES,% Inhibition [%],Z score
Cc1ccc2oc(-c3noc(-c4ccc(C#N)cc4)n3)c(C)c2c1,-2,0.21
O=C(c1cnc2ccccc2n1)N1CC[C@H](Oc2ncc(F)cn2)C1,4,-0.58
CC(C)(C)n1nc(CC(N)=O)nc1CCc1cn[nH]c1,-7,0.86
CC1=NS(=O)(=O)N(C)C=C1C(=O)NCc1nc(C(C)C)cs1,-18,1.88
O=C(Nc1cccc(-c2noc(C3CCCC3)n2)c1)c1cccc(Cl)c1,-17,2.96
OC1(Cc2cccc(Cl)c2)CCN(CC2CCc3ncnn32)C1 (stereo not given),-3,0.57
Clc1snnc1CN1CCO[C@@H](Cn2cccn2)C1,-12,1.68
O=C(N[C@H]1CC[C@H](Nc2ccccn2)CC1)c1ccc(S(=O)(=O)N2CCCC2)cc1,-11,1.06
Cc1ncc(CN(C)C(=O)Cc2cc(Cl)ccc2Cl)s1,11,-1.62
CC1(C)Cc2cccc(Oc3ncncc3Br)c2O1,-3,0.28
O=S(=O)(Cc1cccc(F)c1)N1CCC(n2ccnn2)CC1,-22,2.5
COCC(=O)NCc1ccc(OC)c(OC(F)F)c1,-13,2.03
FC(F)(F)[C@@H]1CCN(Cc2c[nH]c3nccnc23)CC12CCOCC2,-2,0.4
CC(C)(C(=O)NCC1(c2ccccc2)CC1)[C@H](O)c1cccc(O)c1,22,-2.83
C=CCCCn1nnc(CN(C)C(=O)c2ccccc2)n1,-3,0.63
CO[C@H]1CCOC[C@@H]1NC1CCN(c2ncc3ccc(F)cc3n2)CC1,1,-0.16
O=C(O)C1CCCN(C(=O)C2CC2C2CCCCC2)C1 (stereo not given),-14,1.93
c1ccc(-c2cc(CNc3nncc(-c4cccc5ccccc45)n3)n[nH]2)cc1,7,-0.98
Cc1csc(NC(=O)Cc2c(C)nc(C)[nH]c2=O)n1,11,-1.46
O=C(Cn1cnc(-c2nc(-c3ccccc3)cs2)c1)NCc1cccc(Cl)c1,-9,1.19
Cc1cccc(O[C@@H](C)C(=O)N(C)C2CN(c3ccc4nnc(C)n4n3)C2)c1C,-13,1.42
CC(C)(C)n1nc2nc(N3CCCC3)nc(-c3cccc(Oc4ccccc4)c3)c2c1N,-15,2.25

SMILES,% Inhibition [%],Z score
Cc1nc2n(n1)C[C@@H](Nc1ccc3nccnc3n1)CC2,3,-0.54
C#C[C@H](C)OC(=O)c1cc(C(C)C)[nH]n1,-1,0.12
COC(=O)CCC(=O)NCc1cccnc1N1CCCCCCC1,5,-0.58
C[C@H](NC(=O)C1=NN(C)C(=O)CC1)c1ccccn1,19,-2.48
OC1(Cc2cc(-c3ccccc3)no2)CCN(CC(c2ccccc2)c2ccccc2)CC1,-10,1.36
CCC1CC(CC(=O)Nc2ccccc2-c2ncco2)CCO1 (stereo not given),-7,1.19
CC1=NN(c2nc(-c3ccccc3)no2)[C@@](O)(C(F)(F)F)C1,-3,0.5
CS(=O)(=O)c1ccc(CN2CCC([C@@H](O)CCc3ccccc3)CC2)cc1,-3,0.41
Cc1cc(-c2ccc(C(=O)N3CCC(F)(F)CC3)cc2)c(=O)[nH]c1C,-7,0.95
CC1CC(C)CN(S(=O)(=O)NCC(O)c2c(F)cccc2F)C1 (stereo not given),-15,2.11
CCc1nc(CCN=C(NC)NC)sc1C,4,-0.35
CN1CC[C@H](NC(=O)CCc2cc3ccccc3[nH]c2=O)CC1=O,-14,1.45
CCCn1c(C)nnc1COC(=O)c1cc(Cl)c(Cl)[nH]1,-14,1.57
CN1C(=O)N(CC[C@H]2CCCO2)S(=O)(=O)c2ccccc21,-9,0.98
CCc1cccc(NC(=O)Cn2cnc3nc(N4CCCC4)sc3c2=O)c1,-2,0.26
CCCC(=O)C(=O)N1Cc2c(-c3cccc(C)c3)nc(N)nc2[C@@H]1C,-13,1.24
CC(=O)NCCNC(=O)c1cc(NCc2ccc3nsnc3c2)cc(S(=O)(=O)N(C)C)c1,-16,1.89
Cn1c(Cn2ccnc2)nnc1[C@H]1CCCN(c2ncccc2Cl)C1,-3,0.48
O=C(C[C@H]1c2ncccc2C(=O)N1c1ccccc1)NCCN1CCCCC1,-6,1.08
CN=C(NCc1ccc(C)c(OC)c1)NCc1ccccn1,-7,0.63
CC1=NS(=O)(=O)NC(C)=C1CCC(=O)N(C)Cc1ccccc1,-5,0.75
CC(=O)N1CCOC[C@@H]1Cc1ccccc1,-4,0.75

SMILES,% Inhibition [%],Z score
CCOC(=O)C1CCN(C(=O)[C@H](C)NC(=O)c2cc3n(n2)CCCN(Cc2ccc(C)cc2)C3=O)CC1,1,-0.1
Cc1cc(NC(=O)CCc2c(C)[nH]c(=O)c(C#N)c2C)[nH]n1,-1,0.09
CC1CCC(C(=O)Nc2cccc3c2OCCN3C(=O)C2CCC(C)O2)O1 (stereo not given),-10,1.6
Cc1[nH]c2ccnn2c(=O)c1CC(=O)N1CC[C@H](C)c2cccc(O)c21,39,-5.3
Cc1ccc(C)c(NC(=O)c2nnn(CC(=O)Nc3ccc4c(c3)OCCO4)c2C)c1,1,-0.21
CC(C)N(C)S(=O)(=O)N(C)CCCN1CCCCCC1,1,-0.16
c1ccc(OCCCN2CCN(Cc3noc(C4CC4)n3)CC2)cc1,10,-1.55
Cc1cc(CN(C)Cc2cnc3n2CCOC3)no1,5,-0.94
CCN1[C@H](C)CN(c2ccnc(C(=O)OC)n2)C[C@@H]1C,-3,0.35
COc1cc(C(=O)NC2Cc3ccccc3C2)ccc1OC1CCN(C(C)=O)CC1,-8,1.03
CC(C)N1CCCn2cc(S(=O)(=O)Nc3ccc(N4CCOCC4)cc3)cc2C1=O,-12,1.41
C=CCOC[C@@H](O)CN(Cc1cccn1Cc1cccc(F)c1)CC(C)C,-18,1.85
COCCN(C[C@@H]1CC=CCC1)C(=O)c1c[nH]nn1,31,-3.48
O=C(CCNC(=O)c1ccncc1)N[C@H](c1ccccc1)C1CCC1,-8,1.35
Cc1cc(C)n(-c2ccc(C(=O)N3CC[C@H](c4cnccn4)C3)cc2)n1,-41,4.78
CCc1nc(NCCN(C)S(C)(=O)=O)ncc1C,-9,0.86
Cc1ccc(-c2nc(CNC(=O)NC3CCCC3)c(C)o2)cc1,-13,1.62
COC[C@H](C)n1cc(C(=O)NCc2cc3n(n2)CCCO3)c(C)n1,-10,1.18
Cn1ncc2c(=O)n(Cc3coc(-c4c(F)cccc4F)n3)cnc21,-9,1.65
CCOC(=O)N(C)CC(=O)NC1CCCCC1,-6,0.86
CCCCn1c(CC)nc2ccccc21,-14,1.22
CC[C@@H](c1cccnc1)N(C)C(=O)c1ccnnc1,4,-0.78

SMILES,% Inhibition [%],Z score
Clc1ccc(OCCCc2nnc3n2CCCC3)c(Cl)c1,24,-3.19
O=C(c1ccc2nc(-c3ccccc3)cn2c1)N1Cc2ccccc2C1,-4,0.87
CCOCCNS(=O)(=O)c1cnc(N2CCOCC2)c(Cl)c1,4,-0.43
CCn1c(CNc2ccccc2F)nc2cc(S(=O)(=O)N3CCCCC3)ccc21,5,-0.75
O=c1[nH][nH]c(=O)n1-c1ccc(Cl)cc1,-3,0.38
Cc1ccc(C(=O)NCc2ccc(-c3nc(C(C)C)no3)s2)cc1,-1,0.11
C#CCN(CCOC)Cc1cccs1,18,-1.98
COc1cc2ncn([C@H]3[C@@H]4OC[C@@H](O4)[C@@H](NCCC(C)(C)C)[C@@H]3O)c2cc1OC,-2,0.38
COCc1c(C(=O)N2C[C@@H](C)CN(C)c3ccccc32)cnn1-c1ccccc1,0,-0.01
COc1cccc(NC(=O)c2cc3occc3n2C)c1,21,-2.63
COc1ccc(-c2nc3cc(C)ccc3cc2CN(C)Cc2cc(C)[nH]n2)cc1,-2,0.39
CC(=O)Oc1c(-c2ccc(NC(=O)c3ccccc3Cl)cc2)c(-c2cccc(C)c2)nn1-c1cccc(F)c1,-6,0.78
CC(C)c1ncc(C(=O)N[C@@H](C)CCCCNC(=O)OC(C)(C)C)s1,-9,1.04
CCc1nc(C)sc1C(=O)N1CCN(C(C)C)[C@@H](CC)C1,5,-0.49
CC1CN(C(=O)Cc2c[nH]c3ccccc23)CC(C)O1 (stereo not given),-7,1
Cc1cc(NC(=O)Nc2ccc3c(c2)OCO3)no1,-6,0.73
Cn1nc(C(=O)Nc2nc3ccccc3[nH]2)c2ccccc2c1=O,-13,1.22
O=C(c1ccc(Cl)cc1)N1CCN(c2nc3cc(Br)ccc3n3cccc23)CC1,-4,0.85
CC(=O)NCC(=O)NCC1CCN(c2cc(-c3ccc(Cl)cc3)n[nH]2)CC1,-10,1.05
